Data as given in the RNAGym collection of RNA variant scans (doi:10.1073/pnas.2313332121).
This sample is rich in variants without activity.

B1: TPR 5TU (parent)
chain: GGAUCUUCUCGAUCUAACAAAAAAGACAAAUCUGCCACAAAGCUUGAGAGCAUCUUCGGAUGCAGAGGCGGCAGCCUUCGGUGGCGCGAUAGCGCCAACGUUCUCAACUAUGACACGCAAAACGCGUGCUCCGUUGAAUGGAGUUUAUCAUG

Variants of: B1
Assay: polymerase ribozyme fitness, log enrichment relative to wild type (log ratio); higher = more active; in vitro selection for triplet polymerase activity
Summary of the method: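 PCR was used to build mutant libraries for each subunit of a heterodimeric triplet polymerase ribozyme, which were then transcribed. A single in vitro selection round, in triplicate, used a frozen incubation at −7 °C and recovered extended constructs by gel excision, streptavidin beads and RT-PCR. Fitness is the logarithm of genotype enrichment relative to wild-type enrichment, averaged over replicates with inverse-variance weights. The logarithm is base 2, and after Illumina sequencing only genotypes with ≥10 input reads and ≥1 read per output were kept.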

Variant | polymerase ribozyme fitness (log ratio)
G70C C99U U134C | ≤ -4.2
G70C G81A G86C A121U | ≤ -4.2
G70C G83A A107G A115U A122G | ≤ -4.2
G70C G83C C105U C125U | ≤ -4.2
G70C G86A C114U A115G G143U A150C | ≤ -4.2
G70C G88U | ≤ -4.2
G70C G88U A97C | ≤ -4.2
G70C G92U | -3.01
G70C G126U G152A | -3.99
G70U C75A C87G G94C G100U A150U | ≤ -4.2
G70U C85U G88C U145C | ≤ -4.2
G70U U78G G83C U102C U144A U146G C149A | ≤ -4.2
G70U U139G | -2.93
G71A A73G C85G U134G | ≤ -4.2
G71A A91U U146G | ≤ -4.2
G71A A97G A113U A121U A122U A137G | ≤ -4.2
G71A C85G C87U | ≤ -4.2
G71A C95G C99A A138U | ≤ -4.2
G71A C99U | ≤ -4.2
G71A C149G | ≤ -4.2
G71A G86A | -3.5
G71A G88A A138C | ≤ -4.2
G71A G88A C93U A113U C116U G117U U148A G152U | ≤ -4.2
G71A G94A | -2.94

Variant | polymerase ribozyme fitness (log ratio)
G71A U104C | -3.42
G71C A106U | ≤ -4.2
G71C C75A U77A G92A | ≤ -4.2
G71C C76G A113U G124A | ≤ -4.2
G71C C85U | -3.27
G71C C93A | ≤ -4.2
G71C C93U C95G C99G A115C | -3.95
G71C G81U A106C | ≤ -4.2
G71C U77G G86A | ≤ -4.2
G71U A89U | -2.83
G71U A142C | ≤ -4.2
G71U C108U | ≤ -4.2
G71U C114U | ≤ -4.2
G71U C116U | -2.4
G71U G74U G83A C93G C99A A107U | ≤ -4.2
G71U G84A | -2.59
G71U G92U G136A | -2.26
C72G A89G G92A G128C | ≤ -4.2
C72G A91U | ≤ -4.2
C72G G80C G81U C93G C105A A115U | ≤ -4.2
C72G G83U G124U G128U G133A U148A | ≤ -4.2
C72G G92U G126A | ≤ -4.2
C72G G136U G141A | ≤ -4.2
C72G U77C | ≤ -4.2

Variant | polymerase ribozyme fitness (log ratio)
C72G U102G | ≤ -4.2
C72U A91U C96G | ≤ -4.2
C72U A91U G92A U127G | ≤ -4.2
C72U A97C C103G C131G A137C U146A | ≤ -4.2
C72U C85G | -1.95
C72U C87U C105A | -3.79
C72U C87U U101G G124C | -1.6
C72U C93A A137G | ≤ -4.2
C72U G74A A110G C116U U139G A150C | ≤ -4.2
C72U G83A C93U U111C A120U G143U | ≤ -4.2
C72U G86U | ≤ -4.2
C72U G88C C99U C105U C123A G140U | ≤ -4.2
C72U G92A C116U U139G | -3.15
C72U G92U U135A G143A | -3.54
C72U U139C G143A | ≤ -4.2
A73C A91G C116U | ≤ -4.2
A73C C87G G141C | ≤ -4.2
A73C C87U C125U | ≤ -4.2
A73C C95U U111C | ≤ -4.2
A73G A91C C95U A121C C125U | ≤ -4.2
A73G C76A G88C C105G C108G C114U G136U | -3.91
A73G C76U C93A C99A U145A | ≤ -4.2
A73G C85A G124C C129G | ≤ -4.2
A73G C85U G88A A119U U134A G140C | ≤ -4.2

Variant | polymerase ribozyme fitness (log ratio)
A73G C85U G126U C131G | ≤ -4.2
A73G C87A | -4.18
A73G C87A A115U C116A G143U | ≤ -4.2
A73G C87A G94U C118U A121G G152C | ≤ -4.2
A73G C87G | ≤ -4.2
A73G C87G U101G U139C | ≤ -4.2
A73G C93U A110U | ≤ -4.2
A73G C93U G141U | 0.326
A73G C99U | -0.979
A73G C125G G133A U146G | ≤ -4.2
A73G G80C G84A | ≤ -4.2
A73G G83U C87A A89C | ≤ -4.2
A73G G84U | -1.29
A73G G88A A107G | ≤ -4.2
A73G G128C | -3.67
A73G U104A A110C | ≤ -4.2
A73U A89C U90G A110U | ≤ -4.2
A73U A91U G140A | ≤ -4.2
A73U A98G G126U U127A | ≤ -4.2
A73U A107U U139G U148A | ≤ -4.2
A73U C85U G143U | ≤ -4.2
A73U C87G C116A A122G | ≤ -4.2
A73U C93U G136A | -1.59
A73U C96A U109A C116U | -3.64

Variant | polymerase ribozyme fitness (log ratio)
A73U C96U C108G G141A U146G | ≤ -4.2
A73U G80C C93G G124A G140A | ≤ -4.2
A73U G83A C93U A138C U145C | ≤ -4.2
A73U G83C C95A G117U U135G | ≤ -4.2
A73U G83C G143C | ≤ -4.2
A73U G83U C85U G140A A142C | ≤ -4.2
A73U G84A U144C | -1.83
A73U G86U | -4.19
A73U G92U G141A U145A | -3.24
A73U G128C | ≤ -4.2
A73U U109A C118G C132U | ≤ -4.2
G74A | -2.81
G74A A89C | ≤ -4.2
G74A A89C G94U U109G G117U | ≤ -4.2
G74A C85A G86A C93G C114U U139G | ≤ -4.2
G74A C85G C131A | ≤ -4.2
G74A C85G U102A U145A | ≤ -4.2
G74A C85U A98G C105U | ≤ -4.2
G74A G84A A137U | ≤ -4.2
G74A G100U U104C U109G U146A | ≤ -4.2
G74A U135A | ≤ -4.2
G74C | -3.96
G74C C75A A106G | ≤ -4.2
G74C C76G G84A C93G A107G | ≤ -4.2

Variant | polymerase ribozyme fitness (log ratio)
G74C C118U | -4.02
G74C G92U | -4.02
G74C U104A C105G A115G U146G | ≤ -4.2
G74U | -3.33
G74U C85G C99A A107U C125A | ≤ -4.2
G74U C99G | ≤ -4.2
G74U C105A A107C G136U | ≤ -4.2
G74U G84C C96A C99U G100C C108G | ≤ -4.2
G74U G84U G133C U145A | ≤ -4.2
G74U U146A | ≤ -4.2
C75A A89G C96A U146G | ≤ -4.2
C75A A91U U101A | ≤ -4.2
C75A C93U A97U | ≤ -4.2
C75A C95U A98U C103U U145G U146G | ≤ -4.2
C75A C103G | ≤ -4.2
C75A G86A A120C | ≤ -4.2
C75A G86U | ≤ -4.2
C75A U78C C87U C93G G124U | ≤ -4.2
C75A U78C C123U G128C | ≤ -4.2
C75A U82C C93U | ≤ -4.2
C75G A89U C93G U104G A147C | ≤ -4.2
C75G C76G G94C C95U U104G | ≤ -4.2
C75G C87A C105U | ≤ -4.2
C75G C93U U102C C103G C118G | ≤ -4.2

Variant | polymerase ribozyme fitness (log ratio)
C75G G83A A121C | ≤ -4.2
C75G G83A G100A A107U C116G | ≤ -4.2
C75G G84U A107U A121G | ≤ -4.2
C75G G84U C131G U135A | ≤ -4.2
C75G G100C U135A | ≤ -4.2
C75G U78G U82C C118A U151C | ≤ -4.2
C75G U82G G94A C96A C105G U109A | ≤ -4.2
C75G U127G | ≤ -4.2
C75G U134G | -4
C75U A91G U104A U139A | ≤ -4.2
C75U A91U C95A A107G C108A A119U | ≤ -4.2
C75U A137C | -3.47
C75U C85A | -1.84
C75U C85U | 0.543
C75U C93G | -3
C75U C93U C114G G117U C123A G126C | ≤ -4.2
C75U C93U G143U | -3.61
C75U G80C G88U U90C C95G | ≤ -4.2
C75U G83A C105G G128U U134A A138U G141U | ≤ -4.2
C75U G84U U148A | ≤ -4.2
C75U G86U C87G U135C | ≤ -4.2
C75U G88A C118U | ≤ -4.2
C75U G88C A89U G117A G126C | ≤ -4.2
